About 64,000 (15%) of roughly 420,000 compounds were called active. Inconclusive results, whose numbers are uncertain, are shown with a selection of clear calls. Calls come from the whole dose curve; as a rule, active = well fitted inhibition curve with a large enough effect; inconclusive = small, poorly fitted or top-dose-only effect; inactive = flat fitted curve, though single readings scatter. Potencies of inconclusive entries are left out as doubtful fits.
Assay: qHTS for Inhibitors of human tyrosyl-DNA phosphodiesterase 1 (TDP1): qHTS in cells in absence of CPT; note: nearly all actives have a fitted effect of over 55% in size
Conditions: DT40 Tdp1-/- hTDP1 cells, no CPT, ATP luminescence, 48 h; activity change, negative = growth inhibition: at 46.2 µM (top of the series) unless noted
Description: Human tyrosyl-DNA phosphodiesterase 1 (TDP1) is a novel repair gene, and we propose to use it as a new target for anticancer drug development. TDP1 is not an essential protein, but under treatment with topoisomerase I poison (camptothecin: CPT), TDP1 works as a critical factor for cell survival. To directly identify novel TDP1 inhibitors active in a cellular environment, we have knocked-out the Tdp1 gene in chicken DT40 cells (Tdp1-/-) and generated a complemented counterpart cells that contains a stable transfection of the human TDP1 gene (Tdp1-/-;hTDP1 cells). For the primary screen, Tdp1-/-;hTDP1 cells will be exposed to small molecules in the presence or absence of CPT, and their growth kinetics will be evaluated after 48 hours by measuring ATP activity. […] The hit compounds will then be evaluated in the presence or absence of CPT using Tdp1-/- cells. […] In tertiary assays, biochemical gel-based assays will be used to assess whether the hit compounds specifically target TDP1.
To this end, we have screened this cell line against the MLSMR in two primary screens. In one screen we add CPT and in the other we screen in the absence of CPT; this AID represents the screen where CPT was absent.
NIH Chemical Genomics Center [NCGC]
NIH Molecular Libraries Probe Centers Network [MLPCN]
Assay Submitter (PI): Yves Pommier, NCI
DT40-hTDP1 cells without 20 nM Camptothecin (add 20 microL of DMSO in 1 L of cell culture medium) were dispensed at 400 cells/5microL/well in tissue culture treated 1536-well white wall/solid bottom assay plates (Greiner Bio-One North America, NC, U.S.A.) using a Multidrop Combi 8 channel dispenser (Thermo Fisher, Waltham, MA, USA). 23 nL compounds and controls were transferred using the pin tool (Kalypsys, San Diego, CA, USA) to the assay plates. The assay plates were then incubated at 37 masculineC for a minimum 48 hr. Three microL of Cell Titer Glo solution was added to the plates and incubated at RT in dark for 30 min. Luminescence was read using ViewLux (Perkin Elmer) with 1 sec exposure slow speed, high gain and 2x binning.
% is set by controls: 0 for no effect and ±100 for the full control effect; potency is the fitted concentration of half-maximal effect; tags give direction and shape of the fitted curve.

| Structure (SMILES) | Potency | activity change, negative = growth inhibition |
| --- | --- | --- |
| COc1ccc(C(=O)N2CC3(C)CC2CC(C)(C)C3)cc1 (configuration not stated) | inconclusive [inhibitor, single point] | – |
| CC1CN(C(=O)[C@@H]2CCCN2S(=O)(=O)c2ccc(Cl)cc2)CC(C)O1 (some centres not stated) | inconclusive [inhibitor, single point] | – |
| O=C1CN(C(=O)/C=C/c2ccccc2)CCN1 | – | inactive: 1.91% |
| Cc1cc(-n2c(C)cc(C(=O)CN3C(=O)NC4(CCCCC4C)C3=O)c2C)no1 (configuration not stated) | inconclusive [inhibitor, partial curve, poor fit] | – |
| COc1cc(Cl)ccc1NC(=O)COc1ccccc1C(=O)NN | inconclusive [inhibitor, single point] | – |
| O=C(Nc1ccnn1C1CCN(C(=O)c2ccc(F)cc2)CC1)C1CCOC1 (configuration not stated) | – | inactive: 9.28% |
| COCCOC(=O)C1=C(C)NC2=C(C(=O)CC(C)(C)C2)C1c1cc2c(cc1Br)OCO2 (configuration not stated) | – | inactive: -2.2% |
| Cc1ccc(CNC(=O)c2cccc3c2C(=O)c2ccc(N4CCC(C)CC4)cc2S3(=O)=O)cc1 | inconclusive [inhibitor, single point] | – |
| COc1ccc(CNC(=O)C2CCN(C(=O)N3CCOc4ccc(C)cc43)CC2)cc1 | inactive | – |
| Cc1ccc2nc(N/N=C\c3ccc([N+](=O)[O-])o3)nc(-c3ccccc3)c2c1 | inconclusive [inhibitor, partial curve, poor fit] | – |
| O=C(NCc1ccco1)c1cccc(S(=O)(=O)N2CCN(Cc3ccccc3)CC2)c1 | – | inactive: -28.5% |
| COc1cccc(CCNc2ccc(N3C(=O)CC(C)C3=O)cc2[N+](=O)[O-])c1 (configuration not stated) | inconclusive [inhibitor, single point] | – |
| N=c1n(CCO)c2ccccc2n1CCOc1ccccc1 | inconclusive [inhibitor, single point] | – |
| CCCOC(=O)C1=C(C)NC2=C(C(=O)CC(C)(C)C2)C1c1cccnc1 (configuration not stated) | inconclusive [inhibitor, single point] | – |
| Cc1cccc(C(=O)NNS(=O)(=O)c2ccc(F)cc2)c1 | – | inactive: -15.6% |
| O=C(NCc1ccccc1)c1ccc(S(=O)(=O)C(F)F)cc1 | – | inactive: -23.1% |
| CCOC(=O)c1sc(NC(=O)CCN2C(=O)c3ccccc3C2=O)c(C(=O)OCC)c1C | inconclusive [inhibitor, partial curve] | – |
| CC(=O)Oc1ccccc1C1=NN(C(=O)/C=C/c2ccccc2)C(c2ccccc2)C1 (configuration not stated) | active: 18.4 µM | – |
| c1ccc(NC2=NCCN2CCCC2CCCC2)cc1 | inconclusive [inhibitor, single point] | – |
| Cc1nc2nc(SCC(=O)NCCCN3CCCC3)nn2c(C)c1Cc1ccccc1Cl | inconclusive [inhibitor, single point] | – |
| COc1ccc(-c2csc(Nc3cccc(C)n3)n2)cc1 | inconclusive [inhibitor, single point] | – |
| Cc1cc2ccccc2n1CCNC(=O)c1cccs1 | inconclusive [inhibitor, single point] | – |
| O=C(NCc1ccc(Cl)cc1)c1cc2cccc3c2n1CCS3 | active: 16.4 µM | – |
| C=C(C)COc1ccc(-c2[nH]ncc2-c2ccc(OC)c(OC)c2)c(O)c1 | active: 1.64 µM | – |

| Structure (SMILES) | Potency | activity change, negative = growth inhibition |
| --- | --- | --- |
| COc1cccc(/C=N/Nc2nn3cnnc3c3ccccc23)c1 | active: 20.6 µM | – |
| CC1CCCN(C(=O)c2ccc(CSc3nc4ccncc4n3Cc3ccccc3)cc2)C1 (configuration not stated) | active: 23.1 µM | – |
| Cc1cccc(C)c1N1CCN(S(=O)(=O)c2ccc(F)cc2)CC1 | active: 16.4 µM | – |
| CCOc1cc(S(=O)(=O)NCc2cccs2)ccc1Cl | inconclusive [inhibitor, single point] | – |
| CCOc1ccc(-c2ccc(SCC(=O)NCC3CCCO3)nn2)cc1 (configuration not stated) | – | inactive: -14.9% |
| COc1ccc(CCNC(=O)CSc2nnc3ccc(-c4ccccn4)nn23)cc1OC | – | inconclusive: -32.9% [inhibitor] |
| CCOC(=O)/C(C#N)=C/c1ccc(N2CCN(Cc3ccccc3)CC2)cc1 | active: 20.6 µM | – |
| CC(C)(C)NC(=O)Cn1cc(S(=O)(=O)Cc2ccccc2Cl)c2ccccc21 | inconclusive [inhibitor, single point] | – |
| CCCCN(C)C(=O)c1nc2ccccn2c1CN1CCSCC1 | inconclusive [inhibitor, single point] | – |
| CCCCCCc1cc2cc(-c3nnc(-c4ccccc4)o3)c(=O)oc2cc1O | active: 20.6 µM | – |
| Cc1nc2ccccc2c2oc(C(=O)N3CCN(C(=O)c4ccco4)CC3)cc12 | – | inconclusive: -30.9% [inhibitor] |
| Cc1cccc(NC(=O)Cn2c(=O)n(Cc3nc(-c4ccccc4)no3)c(=O)c3ccccc32)c1 | – | inconclusive: -32.6% [inhibitor] |
| Cc1cc2ccccc2n1CCNC(=O)C1CCCCC1 | inconclusive [inhibitor, single point] | – |
| O=C1CCCC/C1=C/Nc1ccc(C(=O)O)cc1 | – | inactive: 1.02% |
| CC1CN/C(=C\C(=O)c2ccc(Br)cc2)C(=O)N1 (configuration not stated) | inconclusive [inhibitor, partial curve, poor fit] | – |
| O=C(Cn1nc(-c2ccc(F)cc2)ccc1=O)Nc1ccc(C(=O)NC2CC2)cc1 | – | inactive: -8.11% |
| CSc1ccc(/C=N/NC(=O)c2ccc(O)cc2)cc1 | inconclusive [inhibitor, single point] | – |
| CCc1cc2c(=O)[nH]c(Cc3ccc(Cl)cc3)nc2s1 | inconclusive [inhibitor, partial curve, poor fit] | – |
| CCOC(=O)[C@]12CCC=C1N(Cc1cccc3ccccc13)C(=O)[C@H](CC(=O)NCCC(C)C)C2 | active: 20.6 µM | – |
| COc1ccc(C2CC(c3cccc(Cl)c3)=NN2c2ccc(S(N)(=O)=O)cc2)cc1 (configuration not stated) | inconclusive [inhibitor, single point] | – |
| C[n+]1ccc(CC2C(=[N+]([O-])[O-])C=Nc3ncnn32)cc1 (configuration not stated) | – | inactive: -8.96% |
| CN1CCN(CCCNC(=O)c2cn(C3CCCCC3)c(=O)c3c2c2ccccc2n3C)CC1 | – | inactive: -11.3% |
| CCOC(=O)c1[nH]c(C)c(C(=O)OC(C)C(=O)Nc2ncc(Cl)cc2Cl)c1C (configuration not stated) | inconclusive [inhibitor, single point] | – |

From PubChem BioAssay AID686978 (National Center for Advancing Translational Sciences (NCATS), 2013)
